{"source": "the supplement of paper PMC7726561", "note": "The full ranking holds about 1,100 sequences; the median of “thermal melting temperature (Tm) of peptide-HLA complex” is about 58, and the lowest 2% start at about 42. The list shows a part of the results.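 Note: cell lysates heated 10 min at 37–73 °C, remaining pHLA pulled down with pan-class I antibody, peptides quantified by DIA-MS versus 37 °C, Tm where half the complex is lost.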", "data": [{"target": "HLA-A*02:01", "assay": "thermal melting temperature (Tm) of peptide-HLA complex; higher = more thermostable pHLA complex", "details": "C1R-A*02:01", "units": {"thermal melting temperature": "°C"}, "values": [{"sequence": "NLAEKLIGV", "thermal melting temperature": 62.3}, {"sequence": "TLAQRVKEV", "thermal melting temperature": 61.8}, {"sequence": "LLDGFPRTV", "thermal melting temperature": 49.2}, {"sequence": "SLLKEPQKVQL", "thermal melting temperature": 55.5}, {"sequence": "TLSDVVVGL", "thermal melting temperature": 62}, {"sequence": "FLWKEPATM", "thermal melting temperature": 52.9}, {"sequence": "FLFGEEPSKL", "thermal melting temperature": 53.1}, {"sequence": "ILPSYIPVRV", "thermal melting temperature": 57.1}, {"sequence": "ILFGHENRV", "thermal melting temperature": 57.6}, {"sequence": "FIYHGEVPQA", "thermal melting temperature": 58.5}, {"sequence": "SLQSTILGV", "thermal melting temperature": 58.4}, {"sequence": "LLLAAPAQA", "thermal melting temperature": 52.5}, {"sequence": "FLMKNSDLYGA", "thermal melting temperature": 58.4}, {"sequence": "KLGDFPYVSI", "thermal melting temperature": 56}, {"sequence": "GLADLERAQA", "thermal melting temperature": 50.2}, {"sequence": "YLSGIAHFL", "thermal melting temperature": 62}, {"sequence": "AALPNVYEV", "thermal melting temperature": 62.9}, {"sequence": "LLLPGPSAA", "thermal melting temperature": 45.2}, {"sequence": "FLADPSAFVAA", "thermal melting temperature": 58.8}, {"sequence": "TLSTVISKV", "thermal melting temperature": 58.3}, {"sequence": "TLLVVVPKL", "thermal melting temperature": 54.9}, {"sequence": "YAAPGGLIGV", "thermal melting temperature": 59.4}, {"sequence": "TLLTKPVEI", "thermal melting temperature": 55.3}, {"sequence": "FLIGPKLYEA", "thermal melting temperature": 60.8}, {"sequence": "FLIEEQKIVV", "thermal melting temperature": 53.6}, {"sequence": "ALLELVPWRA", "thermal melting temperature": 58}, {"sequence": "VLTKEDFRL", "thermal melting temperature": 59.8}, {"sequence": "YQIAEQFRV", "thermal melting temperature": 61.3}, {"sequence": "RLMEPIYLVEI", "thermal melting temperature": 56.3}, {"sequence": "ALLEMDARL", "thermal melting temperature": 57.9}, {"sequence": "FLLGKEVSL", "thermal melting temperature": 63.8}, {"sequence": "VMFGGKQVVV", "thermal melting temperature": 57.5}, {"sequence": "IQDFEMPTV", "thermal melting temperature": 50.9}, {"sequence": "KVLERVNAV", "thermal melting temperature": 55}, {"sequence": "ALADLQEAVKL", "thermal melting temperature": 58.8}, {"sequence": "RLFDEPQLA", "thermal melting temperature": 57.9}]}]}
